Reference: patent US8697661B2, “Use of spinosyns and spinosyn compositions against herpesviridae viral infections” (priority 2009, dated 2014)

System: P. falciparum strains 3D7, FAF6, Dd2, K1
Assay: 48 h SYBR green growth assay, chloroquine sensitive and chloroquine resistant strains
Conditions: ring stage parasites, parasitemia 2%

## Spinosad
  activity against chloroquine sensitive and resistant strains: equally active
